Measurements: the supplement of paper PMC10369915
The list shows a part of the results. No stated cut-off is given here; in the data, active = 3.2 or more and inactive = the rest. Most of these values are background signal.

target: SHP2 C-SH2 domain E139D; assay: enrichment score (SH2-bound / input frequency) (ratio); bacterial display of known human phosphotyrosine sites (pTyr-Var adds point mutants) read by sequencing; higher = stronger binding; tyrosines were phosphorylated by kinases first; conditions: peptide library: pTyr-Var
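Further: displayed peptides selected on beads carrying the immobilized SH2 domain, with library peptides lacking any tyrosine serving as negative controls.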

Enrichment score, active:
CLSHCYFSQIR [MCM3AP_Y873_L870S] 4.25
CLLHCYFSQIH [MCM3AP_Y873_R878H] 3.76

Enrichment score, inactive:
EEGNPYFSGAR [MCCC2_Y520_S523G_YF] 0.601
EEGNPSFSSAR [MCCC2_Y520_Y520S_YF] 0.592
EEGNPYFSSAR [MCCC2_Y520_YF] 0.639
KNNDGYIDFAE [MCFD2_Y135_YF] 0.441
DGYTDYAEFAK [MCFD2_Y138_I136T] 0.511
RRGLLYDSDEE [MCM2_Y137] 0.168
RRGFLYDSDEE [MCM2_Y137_L135F] 0.414
VQSASYLNACL [MCM3AP_Y864] 0.871
VQSASYLNDCL [MCM3AP_Y864_A867D] 1.05
RKPDIYERLAS [MCM4_Y459] 1.01
YKEDPYLVVNP [MCM6_Y810_E806K] 0.906
FEEDPYLVVNP [MCM6_Y810_YF] 0.729
RSAGKYDVYFI [MECP2_Y120_L124F] 0.553
RSAGKYDVFFI [MECP2_Y120_L124F_YF] 0.734
RSAGKDDVYLI [MECP2_Y120_Y120D] 0.463
ARSHIYTFASC [MEFV_Y741] 0.786
ARSHIYTLASC [MEFV_Y741_F743L] 0.75

target: SHP2 C-SH2 domain wild-type; assay: as above; conditions: peptide library: pTyr-Var

Enrichment score, inactive:
EEGNPYFSGAR [MCCC2_Y520_S523G_YF] 0.556
EEGNPSFSSAR [MCCC2_Y520_Y520S_YF] 0.656
EEGNPYFSSAR [MCCC2_Y520_YF] 0.608
KNNDGYIDFAE [MCFD2_Y135_YF] 0.552
DGYTDYAEFAK [MCFD2_Y138_I136T] 0.459
RRGLLYDSDEE [MCM2_Y137] 0.28
RRGFLYDSDEE [MCM2_Y137_L135F] 0.302
VQSASYLNACL [MCM3AP_Y864] 1.06
VQSASYLNDCL [MCM3AP_Y864_A867D] 0.819
RKPDIYERLAS [MCM4_Y459] 0.894
YKEDPYLVVNP [MCM6_Y810_E806K] 0.94
FEEDPYLVVNP [MCM6_Y810_YF] 0.764
RSAGKYDVYFI [MECP2_Y120_L124F] 0.834
RSAGKYDVFFI [MECP2_Y120_L124F_YF] 0.635
RSAGKDDVYLI [MECP2_Y120_Y120D] 0.408
ARSHIYTFASC [MEFV_Y741] 0.728
ARSHIYTLASC [MEFV_Y741_F743L] 0.972

Enrichment score, active:
CLSHCYFSQIR [MCM3AP_Y873_L870S] 3.71
CLLHCYFSQIH [MCM3AP_Y873_R878H] 3.5

target: SHP2 N-SH2 domain L43F; assay: as above; conditions: peptide library: pTyr-Var

Enrichment score, active:
CLSHCYFSQIR [MCM3AP_Y873_L870S] 3.44

Enrichment score, inactive:
EEGNPYFSGAR [MCCC2_Y520_S523G_YF] 0.503
EEGNPSFSSAR [MCCC2_Y520_Y520S_YF] 0.431
EEGNPYFSSAR [MCCC2_Y520_YF] 0.498
KNNDGYIDFAE [MCFD2_Y135_YF] 0.596
DGYTDYAEFAK [MCFD2_Y138_I136T] 0.678
RRGLLYDSDEE [MCM2_Y137] 0.413
RRGFLYDSDEE [MCM2_Y137_L135F] 0.515
VQSASYLNACL [MCM3AP_Y864] 0.892
VQSASYLNDCL [MCM3AP_Y864_A867D] 0.752
CLLHCYFSQIH [MCM3AP_Y873_R878H] 2.61
RKPDIYERLAS [MCM4_Y459] 0.846
YKEDPYLVVNP [MCM6_Y810_E806K] 0.95
FEEDPYLVVNP [MCM6_Y810_YF] 0.749
RSAGKYDVYFI [MECP2_Y120_L124F] 0.981
RSAGKYDVFFI [MECP2_Y120_L124F_YF] 0.86
RSAGKDDVYLI [MECP2_Y120_Y120D] 0.428
ARSHIYTFASC [MEFV_Y741] 0.744
ARSHIYTLASC [MEFV_Y741_F743L] 0.87

target: SHP2 N-SH2 domain T42A; assay: as above; conditions: peptide library: pTyr-Var

Enrichment score, inactive:
EEGNPYFSGAR [MCCC2_Y520_S523G_YF] 0.517
EEGNPSFSSAR [MCCC2_Y520_Y520S_YF] 0.58
EEGNPYFSSAR [MCCC2_Y520_YF] 0.456
KNNDGYIDFAE [MCFD2_Y135_YF] 0.765
DGYTDYAEFAK [MCFD2_Y138_I136T] 0.347
RRGLLYDSDEE [MCM2_Y137] 0.265
RRGFLYDSDEE [MCM2_Y137_L135F] 0.343
VQSASYLNACL [MCM3AP_Y864] 0.786
VQSASYLNDCL [MCM3AP_Y864_A867D] 0.713
CLSHCYFSQIR [MCM3AP_Y873_L870S] 3.15
CLLHCYFSQIH [MCM3AP_Y873_R878H] 2.29
RKPDIYERLAS [MCM4_Y459] 0.772
YKEDPYLVVNP [MCM6_Y810_E806K] 0.824
FEEDPYLVVNP [MCM6_Y810_YF] 0.834
RSAGKYDVYFI [MECP2_Y120_L124F] 0.471
RSAGKYDVFFI [MECP2_Y120_L124F_YF] 0.793
RSAGKDDVYLI [MECP2_Y120_Y120D] 0.516
ARSHIYTFASC [MEFV_Y741] 0.664
ARSHIYTLASC [MEFV_Y741_F743L] 0.883

target: SHP2 N-SH2 domain T52S; assay: as above; conditions: peptide library: pTyr-Var

Enrichment score, active:
CLSHCYFSQIR [MCM3AP_Y873_L870S] 3.74

Enrichment score, inactive:
EEGNPYFSGAR [MCCC2_Y520_S523G_YF] 0.533
EEGNPSFSSAR [MCCC2_Y520_Y520S_YF] 0.445
EEGNPYFSSAR [MCCC2_Y520_YF] 0.648
KNNDGYIDFAE [MCFD2_Y135_YF] 0.567
DGYTDYAEFAK [MCFD2_Y138_I136T] 0.508
RRGLLYDSDEE [MCM2_Y137] 0.301
RRGFLYDSDEE [MCM2_Y137_L135F] 0.379
VQSASYLNACL [MCM3AP_Y864] 0.842
VQSASYLNDCL [MCM3AP_Y864_A867D] 0.784
CLLHCYFSQIH [MCM3AP_Y873_R878H] 2.63
RKPDIYERLAS [MCM4_Y459] 0.709
YKEDPYLVVNP [MCM6_Y810_E806K] 0.941
FEEDPYLVVNP [MCM6_Y810_YF] 0.815
RSAGKYDVYFI [MECP2_Y120_L124F] 0.909
RSAGKYDVFFI [MECP2_Y120_L124F_YF] 0.768
RSAGKDDVYLI [MECP2_Y120_Y120D] 0.49
ARSHIYTFASC [MEFV_Y741] 0.669
ARSHIYTLASC [MEFV_Y741_F743L] 0.747

target: SHP2 N-SH2 domain wild-type; assay: as above; conditions: peptide library: pTyr-Var

Enrichment score, inactive:
EEGNPYFSGAR [MCCC2_Y520_S523G_YF] 0.687
EEGNPSFSSAR [MCCC2_Y520_Y520S_YF] 0.612
EEGNPYFSSAR [MCCC2_Y520_YF] 0.578
KNNDGYIDFAE [MCFD2_Y135_YF] 0.668
DGYTDYAEFAK [MCFD2_Y138_I136T] 0.48
RRGLLYDSDEE [MCM2_Y137] 0.242
RRGFLYDSDEE [MCM2_Y137_L135F] 0.207
VQSASYLNACL [MCM3AP_Y864] 1.07
VQSASYLNDCL [MCM3AP_Y864_A867D] 1.04
CLLHCYFSQIH [MCM3AP_Y873_R878H] 3.09
RKPDIYERLAS [MCM4_Y459] 1.13
YKEDPYLVVNP [MCM6_Y810_E806K] 1.13
FEEDPYLVVNP [MCM6_Y810_YF] 1.01
RSAGKYDVYFI [MECP2_Y120_L124F] 0.796
RSAGKYDVFFI [MECP2_Y120_L124F_YF] 0.621
RSAGKDDVYLI [MECP2_Y120_Y120D] 0.536
ARSHIYTFASC [MEFV_Y741] 0.718
ARSHIYTLASC [MEFV_Y741_F743L] 0.872

Enrichment score, active:
CLSHCYFSQIR [MCM3AP_Y873_L870S] 3.32
